# Counter-ions that a name gives are not always drawn. ± gives the standard deviation of the averaged measurements. The full ranking holds about 1,900 compounds; the median of “normalised cell viability (NPI; 0 = phenylarsine oxide control, 1 = DMSO control)” is about 1, and the lowest 2% start at about 0.039. This is one part of the list.
# Tested on: NCI-H1944
# Assay: normalised cell viability (NPI; 0 = phenylarsine oxide control, 1 = DMSO control) (fraction of DMSO control); NCI-H1944 is a non-small cell lung cancer line; higher = more viable cells (less compound toxicity)
# Details: 6 days
# [1] = glucocorticoid arm: hydrocortisone 2.75 uM co-treatment, compound 1 µM
# [2] = glucocorticoid arm: hydrocortisone 2.75 uM co-treatment, compound 5 µM
# [3] = glucocorticoid arm: hydrocortisone 2.75 uM pre-treated 2 days and continued, compound 1 µM
# [4] = glucocorticoid arm: hydrocortisone 2.75 uM pre-treated 2 days and continued, compound 5 µM
# [5] = glucocorticoid arm: vehicle, compound 1 µM
# [6] = glucocorticoid arm: vehicle, compound 5 µM
# 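Also: CTB read-out in 384-well plates, mean of triplicate wells, normalised per plate against 1 µM phenylarsine oxide and 0.1% DMSO, compounds added 24 h after seeding.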
SMILES,normalised cell viability [1],normalised cell viability [2],normalised cell viability [3],normalised cell viability [4],normalised cell viability [5],normalised cell viability [6]
C[S+]([O-])c1ccc(-c2nc(-c3ccc(F)cc3)c(-c3ccncc3)[nH]2)cc1 (centres undefined),0.894 ± 0.017,0.905 ± 0.027,0.8577 ± 0.004,0.868 ± 0.018,1.003 ± 0.0058,1.023 ± 0.0058
COc1cc2c(Oc3ccc(NC(=O)C4(C(=O)Nc5ccc(F)cc5)CC4)cc3F)ccnc2cc1OCCCN1CCOCC1,0.877 ± 0.019,0.369 ± 0.015,0.902 ± 0.026,0.464 ± 0.014,0.8107 ± 0.0061,0.185 ± 0.0057
COc1cc(N2CCC(N(C)C)CC2)ccc1Nc1ncc(Cl)c(Nc2ccccc2P(C)(C)=O)n1,0.424 ± 0.017,0.287 ± 0.046,0.478 ± 0.024,0.396 ± 0.04,0.696 ± 0.042,0.113 ± 0.019
COc1ccccc1Oc1c(NS(=O)(=O)c2ccc(C(C)(C)C)cc2)nc(-c2ncccn2)nc1OCCO [Bosentan],1.001 ± 0.0085,1.03 ± 0.01,0.989 ± 0.046,1.04 ± 0.015,1.003 ± 0.0058,0.9967 ± 0.0011
COc1ccccc1Oc1c(NS(=O)(=O)c2ccc(C(C)(C)C)cc2)nc(-c2ncccn2)nc1OCCO [Bosentan Hydrate],1.005 ± 0.0087,0.988 ± 0.022,0.984 ± 0.038,0.998 ± 0.011,0.983 ± 0.014,0.996 ± 0.014
CN(C)CCC=C1c2ccccc2COc2ccccc21 [Doxepin hydrochloride],1.001 ± 0.0086,0.962 ± 0.025,1.006 ± 0.0075,0.999 ± 0.011,0.991 ± 0.0036,0.989 ± 0.009
CC(C)[N+](C)(CCOC(=O)C1c2ccccc2Oc2ccccc21)C(C)C [Propantheline bromide],1 ± 0.0084,1.005 ± 0.0087,0.874 ± 0.22,0.987 ± 0.011,0.9883 ± 0.0068,0.979 ± 0.011
CN1CCC[C@@H]1Cc1c[nH]c2ccc(CCS(=O)(=O)c3ccccc3)cc12 [Eletriptan HBr],1.013 ± 0.0058,1.03 ± 0.015,1.01 ± 0.01,1.02 ± 0.021,1.002 ± 0.0067,1.002 ± 0.0072
CO[C@H](C(=O)[C@@H](O)[C@@H](C)O)[C@@H]1Cc2cc3cc(O[C@H]4C[C@@H](O[C@H]5C[C@@H](O)[C@H](O)[C@@H](C)O5)[C@H](O)[C@@H](C)O4)c(C)c(O)c3c(O)c2C(=O)[C@H]1O[C@H]1C[C@@H](O[C@H]2C[C@@H](O[C@H]3C[C@](C)(O)[C@H](O)[C@@H](C)O3)[C@@H](O)[C@@H](C)O2)[C@H](O)[C@@H](C)O1 [Plicamycin],0.0675 ± 0.0023,0.0276 ± 0.0011,0.102 ± 0.0097,0.0631 ± 0.0043,0.0202 ± 0.0011,0.011 ± 0.0021
CCN(c1nc(N)c(C(=O)NC(=N)N)nc1Cl)C(C)C [5-(N-Ethyl-N-isopropyl)amiloride],1 ± 0.016,1.01 ± 0.012,0.989 ± 0.022,0.9925 ± 0.0092,1 ± 0.014,1.05 ± 0.046
O=C(O)Cc1c[nH]c2ccc(O)cc12 [5-Hydroxyindolacetic acid],0.9993 ± 0.0011,0.999 ± 0.011,1.02 ± 0.041,0.99 ± 0.0036,1.01 ± 0.01,1.013 ± 0.0058
"Cn1c(=O)c2[nH]c(-c3ccccc3)nc2n(C)c1=O [1,3-Dimethyl-8-phenylxanthine]",1.02,1.05 ± 0.036,1.01 ± 0.014,0.962 ± 0.12,1.007 ± 0.0058,1.02 ± 0.011
C#Cc1cccc(Nc2ncnc3cc(OCCOC)c(OCCOC)cc23)c1,1.001 ± 0.0079,0.961 ± 0.02,1.004 ± 0.01,0.958 ± 0.033,0.979 ± 0.016,0.936 ± 0.015
C#Cc1cccc(Nc2ncnc3cc(OCCOC)c(OCCOC)cc23)c1 [Erlotinib HCl],0.927 ± 0.035,0.784 ± 0.07,0.905 ± 0.016,0.801 ± 0.013,0.926 ± 0.015,0.741 ± 0.035
COc1ccc(Cn2ccc3ccc(C(=O)NO)cc32)cc1,0.959 ± 0.041,1.01 ± 0.029,0.923 ± 0.12,1.04 ± 0.04,0.9977 ± 0.004,1.002 ± 0.0076
NC(=O)c1cnc(N[C@@H]2CCCC[C@@H]2N)nc1Nc1cccc(-n2nccn2)c1,0.907 ± 0.012,0.589 ± 0.023,0.894 ± 0.0098,0.716 ± 0.098,0.923 ± 0.024,0.789 ± 0.043
CN[C@H](CC(=O)O)C(=O)O [N-Methyl-D-aspartic acid],0.9943 ± 0.0057,0.991 ± 0.025,1 ± 0.019,1.02 ± 0.054,0.9787 ± 0.0067,0.989 ± 0.018
CN(N=O)C(=O)N[C@@H]1[C@@H](O)[C@H](O)[C@@H](CO)O[C@@H]1O [Streptozocin],1 ± 0.014,1.03 ± 0.015,1.001 ± 0.0081,1.04 ± 0.01,0.9943 ± 0.0051,1
Cc1ccc(-c2nn(C(C)(C)C)c3ncnc(N)c23)cc1,0.818 ± 0.029,0.87 ± 0.037,0.795 ± 0.042,0.901 ± 0.059,0.96 ± 0.018,0.996 ± 0.013
Cc1c(-c2ccccc2)oc2c(C(=O)OCCN3CCCCC3)cccc2c1=O [Flavoxate HCl],1.023 ± 0.0058,1.02 ± 0.027,1.03,1.03 ± 0.01,0.9983 ± 0.0015,0.9933 ± 0.0021
OC[C@H]1NC[C@H](O)[C@@H](O)[C@@H]1O [1-Deoxynojirimycin hydrochloride],1.01 ± 0.011,0.984 ± 0.025,0.995 ± 0.015,0.969 ± 0.0066,1.003 ± 0.0058,0.991 ± 0.013
NC(=O)c1cccc(-c2cc(Nc3ccc(OC(F)(F)F)cc3)ncn2)c1,1.01 ± 0.017,0.982 ± 0.012,1.01 ± 0.016,0.9723 ± 0.0059,0.9973 ± 0.0015,0.997 ± 0.015
c1cnc(N2CCN(Cc3ccc4c(c3)OCO4)CC2)nc1 [Piribedil maleate],1.001 ± 0.0078,0.969 ± 0.013,1 ± 0.016,0.963 ± 0.01,0.985 ± 0.01,0.9903 ± 0.0076
C[C@](N)(Cc1ccc(O)c(O)c1)C(=O)O [L-alpha-Methyl DOPA],1.002 ± 0.0076,0.975 ± 0.032,1.006 ± 0.0063,1.03 ± 0.086,0.9957 ± 0.0045,0.997 ± 0.012

# — the supplement of paper PMC8285479
